# Out of some 310,000 compounds screened, about 14,000 (4.5%) showed an effect of 50% or more. Effects have a minus sign here. Some of the results follow.
# Molecular target: human ether-à-go-go-related gene (hERG) potassium channel (human, UniProt Q12809)
# Assay: primary screen, population patch clamp on CHO cells stably expressing hERG
# 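Also: peak tail current of the secondary pulse compared with the same well before compound.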
# human ether-à-go-go-related gene (hERG) potassium channel, sequence (Q12809 whole entry, looked up): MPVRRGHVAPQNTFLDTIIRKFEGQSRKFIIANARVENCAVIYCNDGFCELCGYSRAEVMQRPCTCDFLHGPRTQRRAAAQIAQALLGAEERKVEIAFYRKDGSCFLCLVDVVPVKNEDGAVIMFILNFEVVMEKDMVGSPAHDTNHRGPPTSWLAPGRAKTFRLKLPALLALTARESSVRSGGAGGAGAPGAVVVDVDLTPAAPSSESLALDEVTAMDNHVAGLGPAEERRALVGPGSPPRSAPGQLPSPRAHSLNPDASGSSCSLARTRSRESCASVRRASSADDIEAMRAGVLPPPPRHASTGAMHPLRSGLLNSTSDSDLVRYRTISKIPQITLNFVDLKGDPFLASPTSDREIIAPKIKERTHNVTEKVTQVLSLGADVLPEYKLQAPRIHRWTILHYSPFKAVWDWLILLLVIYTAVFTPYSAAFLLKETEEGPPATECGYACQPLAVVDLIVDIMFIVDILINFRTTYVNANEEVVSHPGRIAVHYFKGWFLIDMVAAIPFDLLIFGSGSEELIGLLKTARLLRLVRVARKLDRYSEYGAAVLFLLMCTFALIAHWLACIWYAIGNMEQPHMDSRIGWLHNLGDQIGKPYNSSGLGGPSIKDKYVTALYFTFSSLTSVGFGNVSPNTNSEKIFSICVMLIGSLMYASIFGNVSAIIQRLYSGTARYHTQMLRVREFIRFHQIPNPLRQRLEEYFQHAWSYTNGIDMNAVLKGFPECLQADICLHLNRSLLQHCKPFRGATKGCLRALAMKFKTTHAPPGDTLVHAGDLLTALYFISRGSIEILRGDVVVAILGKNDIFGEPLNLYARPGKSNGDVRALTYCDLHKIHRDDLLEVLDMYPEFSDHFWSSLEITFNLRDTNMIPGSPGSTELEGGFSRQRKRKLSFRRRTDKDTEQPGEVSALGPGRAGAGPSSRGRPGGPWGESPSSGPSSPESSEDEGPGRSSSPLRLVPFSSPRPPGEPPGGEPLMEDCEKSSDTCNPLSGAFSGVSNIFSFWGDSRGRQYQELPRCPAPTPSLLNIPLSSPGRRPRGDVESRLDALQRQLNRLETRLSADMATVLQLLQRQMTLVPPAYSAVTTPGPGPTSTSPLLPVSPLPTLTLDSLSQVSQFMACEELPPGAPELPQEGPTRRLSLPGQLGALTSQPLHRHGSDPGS
row,Compound,"hERG current change (%, negative = inhibition) at 10uM [%]"
1,CCOC(=O)c1c(C)n(C)c2ccc(O)c(CN3CCC(C)CC3)c12,-23.2
2,CC(=C/c1ccco1)/C=N/NC(=O)c1nnn(-c2nonc2N)c1CN(C)C,-47.1
3,COc1ccc(NC(=O)CCCCCn2nnc3ccccc3c2=O)cc1OC,14.8
4,COC(=O)C1=C(c2ccc(F)cc2F)C[C@@H]2CC[C@H]1N2C(=O)NCc1ccc2c(c1)OCO2,-33.5
5,COc1ccc(-c2nc(C#N)c(NCc3ccc(F)cc3)o2)cc1OC,-7.3
6,CCN(CC)CCN(Cc1cc2cccc(C)c2[nH]c1=O)C(=S)Nc1ccccc1,-66.2
7,CC(=O)N1CCN(c2ccc(NC(=O)c3cccc(Cl)c3Cl)cc2)CC1,-8.8
8,CCn1c(SCCC(C)C)nnc1-c1c[nH]c2ccccc12,-0.946
9,O=C(CC1C(=O)NCCN1C(=O)c1ccccc1)Nc1cc(Cl)ccc1Cl (centres unmarked),-5.98
10,NC(=O)CSc1nc(-c2ccccc2)nc2c1CCCC2,5.92
11,CSc1nc(SCC(=O)NC(c2ccccc2)c2ccccc2)c2c3c(sc2n1)CN(C)CC3,-8.86
12,CCOC(=O)N1CCN(C(=O)COc2cccc3c2CCN(CC)C3=O)CC1,6.35
13,COCCn1nnnc1C(c1cc2cccc(C)c2[nH]c1=O)N1CCN(c2ccccc2F)CC1 (centres unmarked),-13.8
14,CCOC(=O)/C=C1\SCC(=O)N1CC(O)CN1C(=O)CS/C1=C\C(=O)OCC (centres unmarked),-14.3
15,COC(=O)Nc1ccc(S(=O)(=O)N2CCC(C(=O)N3CCCCC3C)CC2)cc1 (centres unmarked),16.3
16,O=C(Nc1nc2ccccc2s1)C1CC(=O)N(c2ccc(F)cc2)C1 (centres unmarked),-25.6
17,O=C(O)C(=O)O.O=[N+]([O-])c1ccccc1S(=O)(=O)N1CCN(Cc2ccc3c(c2)OCO3)CC1,-1.78
18,CCO[C@@H]1OC(C(=O)NCc2ccccc2)=C[C@H](c2ccc3c(c2)OCO3)[C@H]1CCCO,-26.6
19,CC(=O)N/N=C(/c1ccccc1)C(O)c1ccccc1 (centres unmarked),16
20,COc1ccc(N2CCN(S(=O)(=O)c3ccc4oc(=O)ccc4c3)CC2)cc1,5.54
21,COn1c(SCc2ccc(C)cc2C)nc2ccccc2c1=O,7.64
22,COCc1cc(C)nc(SCc2ccccc2Cl)c1C#N,7.12
23,NS(=O)(=O)c1ccc(NC(=O)COc2ncnc3c2cnn3-c2ccccc2)cc1,12.1
